Variants at the background level are over-represented here.
B1: TPR 5TU (parent)
chain: GGAUCUUCUCGAUCUAACAAAAAAGACAAAUCUGCCACAAAGCUUGAGAGCAUCUUCGGAUGCAGAGGCGGCAGCCUUCGGUGGCGCGAUAGCGCCAACGUUCUCAACUAUGACACGCAAAACGCGUGCUCCGUUGAAUGGAGUUUAUCAUG

Variants of: B1
Experiment: polymerase ribozyme fitness, log enrichment relative to wild type (log ratio); higher = more active; in vitro selection for triplet polymerase activity
Outline: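 A single round of triplicate in vitro selection, including frozen incubation at −7 °C, was applied to PCR-built, transcribed mutant libraries of each subunit of a heterodimeric triplet polymerase ribozyme. Illumina sequencing of input and output libraries retained genotypes with ≥10 input reads and ≥1 read per output. Fitness is the base-2 logarithm of genotype enrichment divided by wild-type enrichment, from inverse-variance-weighted replicate averages.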

Variant | polymerase ribozyme fitness (log ratio)
GGAUCUUCUAGAUCUAACAAAAAAGACAAAUCUGCCACAAAGCUUGACAGCAUCUUCGGAUGCAGAGGCGGCAGCCUUCGGGGGCGCGAUAGCGCCUACGUUCUCAACUAUGACACGCAAAACGCGUGCUCCGUUGAAUGGAGUUUAUCAUG [C10A G48C U82G A97U] | ≤ -4.2
GGAUCUUCUGGAUCUAACACAAAAGACAAAUCUGCCACAAAGCAUGAGAGCAUCUUCGGAUGCAGAGGCGGCAGCCAUCGGUGGCGCGAUAGCUCCAACGUUCUCAUCUAUGACACGCAAAACGCGUGCUCCGUUGAAUGGAGUUUAUCAUG [C10G A20C U44A U77A G94U A107U] | ≤ -4.2
GGAUCUUCUAGAUCUAACAAAAAAGACAAAUCUGCCACAAAACUUGCGAGCAACUUCGGAUGCAGAGGCGGCAGCCUUCGGUGGCGCGAUAGCGCGAACGUUCUCAAAUAUGACACGCAAAACGCGUGCUCCCUUGAAUGGAGUUUAUCAUG [C10A G42A A47C U53A C96G C108A G133C] | ≤ -4.2
GGAUCUUCUAGAUCUAACAAAAAAGACAAAUCUGCCACAAAGCUUGAGAGCAUCUUCGGAUGCAGAGGCGGCAGCCUUCGGUGGCGCGGUAGCGCAAACGUGCUCAACUAUGACUCGCAACACGCGUGCUCCGUUGAAUGGAGUUUACCAUG [C10A A89G C96A U102G A115U A121C U148C] | ≤ -4.2
GGAUCUUCUAGAUCUAACAAAAAAGACAAAUCUGCCACAAACCUUGAGAGCUUCUUCGGAUGCAGAGGCGGCAGCCUUCGCUGGUGUGAUAGCGCCAACGUUCUUAACUAUGACACGGAAAACGCGUGCUCCGUUAUAUGGAGUUUAUCAUG [C10A G42C A52U G81C C85U C87U C105U C118G G136A A137U] | ≤ -4.2
GGAUCUUCUAGAUCUAACAAAAAAGACAAAUCUGCCACAAAGCUUGAGAGCAUCUUCGGAUGCAGAGGCGGCAGCCUUCGGUGGCGCGAUAGCGUCAACGUUCUCAACUAUGACAGGCAAAACGCGUGCUCCUUUGAAUGGAGUUUAUCAUG [C10A C95U C116G G133U] | ≤ -4.2
GGAUCUUCUAGAUUUAACAAAAAAGACAAAUCUGCCACAAAGCUUGAGAGCAUCUUCGGAUGCAGAGGCGGCAGCCUUCGGUGGCACGAUAGCGCCAGCGUUCUCAACUAUGACACGCAAAACGCGUGAUCCGUUGAAUGGAGUUUAUCAUG [C10A C14U G86A A98G C129A] | ≤ -4.2
GGAUCUUCUGGAUCUAACAAUAAAGACAAAUCUGCCACAAAGCUUGUGAGCAUCUUCGGAUGCAGAGGCGGCAGCCUUCGGUGGCGAGAUAGCGCCAACGUUCUCAACUAUGACACGCAAAUCGCGUAAUCCUUUGAAUGGAGUUUAUCAUG [C10G A21U A47U C87A A122U G128A C129A G133U] | ≤ -4.2
GGAUCUUCUGGAUCUAACGAAAAAGACAAAUCUACCACAAAGCUUGAGAGCCUGUUCGGAUGCAGAGGCGGCAGCCUUCGGUGGCGCGAUAGCGCCAACGUUCUCAACUAUGACACGCAAAACGCGUGCUCCGUUGAAUGGAGUUUAUCAUG [C10G A19G G34A A52C C54G] | ≤ -4.2
GGAUCUUCUAGAUCUAACAAAAAAGACAAAUCUGCCACAAAGCUUGAGAGCAUCUUCGGAUGCAGAGGCGGCAGCCUUCGGUGGGGCGAUAGCGCCAACGUUCUCAACUAUGACACGCAAAACGCGUGCUCCGUUGAAUGUAGUUUAUCAUG [C10A C85G G141U] | ≤ -4.2
GGAUCUUCUAGAUCUAACAAAAAAGACAAAUCUGCCACAAAGCUUGAGAGCAACUUCGGAUGCAGAGGCGCCAGCCUUCGGUGGCGCGAUAGCGCCAACGUUCUCAACUAUGACACGCAAAACGCGUGCUCCGUUGAAUGGAGUUUAUCAUG [C10A U53A G71C] | ≤ -4.2
GGAUCUUCUAGAUCUAACAAAAAAUACCAAUCUGCCACAAAGCUUGAGAGCUUCUUCGGAUGCAGAGACGGCAGCCUUCGGUGGCGACAUAGCGCGAACGUUCUCAACUAUGACACGCAAAACGCGUGCUCCGUUGAAUGGAGUUUAUCAUU [C10A G25U A28C A52U G68A C87A G88C C96G G152U] | ≤ -4.2
GGAUCUUCUAGAUCUAACAAAAAAGACAAAUCUGCCACAAAGCUUGAGAGCAUCUUCGGAUGCAGAGGCGGCAGCCUUCGCAGGCGCGAUAGCGCCAGCGUUCUCAACUAUGACACGCAAAACGCGUGCUCCGUUGAAUGGAGUUUGUCAUG [C10A G81C U82A A98G A147G] | ≤ -4.2
GGAUCUUCUAGAUCUAACAAAAAAGACAAAGCUGGCACAAACCUUGAGAGCAUCUUCGGAUGCAGAGGUGGCAGCCUUCGGUGGCGCGAUAACGGCAACAUUCUCAACUAUGACACGCAAAACGCGUGCUCCGUUGAAUGGAAUUUAUCAUG [C10A U31G C35G G42C C69U G92A C95G G100A G143A] | -3.74
GGAUCUUCUAGAUCUAACAAAAAAGACAAAUCUGCCACAAAGUUUGAGAGCCUCUUCGGAUGCAGAAGCGGCAGCCUCCGGUGGCGCGAUAGAGCCAACGUUCUCAGCUAUGACACGCAAAACGCGUGCUCCGUUGAAUGGCGUUUAUCAUG [C10A C43U A52C G67A U78C C93A A107G A142C] | ≤ -4.2
GGAUCUUCUAGAUCUAACAAAAAAAACAACUCUGCCACAAAGCUUGAGAGCAUCUUCGGAUGCAGAGGCGGCAGCCUUCGGUGGCGCGAUAGUGCCAACGUUCUCAAUUAUGACACUCAAAACGCGUGCUCCGUUGAAUGGAGUUUAUCAUG [C10A G25A A30C C93U C108U G117U] | ≤ -4.2
GGAUCUUCUAGAUCUAACAAAAAAGACAAAUCUGCCACAAAGCUUGAGAGCAUCUUCGGAUGCAGAGGCGGCAGUCUUCGGUGGCGCGAUGGCGCCAACGUUCUCAACUAUGACACGCAAAACGCGUGCUCCGUUGAAUGGAGGUUAUCAUG [C10A C75U A91G U144G] | ≤ -4.2
GGAUCUUCUAGAUCUAACAAAAAAGACAAAUCGGCCACAAAGCUUGAGAGCAGCUACAGAUGCAGAGGCGGCAGCCUUCGGUGGCGCGAUAGCGCUAAAGUUCUCAACUAUGACACGCAAAACGCGUGCUCCGUUGAAUGGAGUUUAUCAUG [C10A U33G U53G U56A G58A C96U C99A] | ≤ -4.2
GGAUCUUCUAGAUCUAACAAAAAAGACAAAUCUGCCACAAAGCUUGAGAGCAUCAUCGGAUGCAGAGGCGGCAGCCUUCGGUGGCGAGAUAGCGCCAACGUUCUCAACUAUGACACGCAAAACGCGUGCUCCGUUGAAUGGAGUUUAUCAUG [C10A U55A C87A] | ≤ -4.2

Reference: the RNAGym collection of RNA variant scans (doi:10.1073/pnas.2313332121)
